# Laboratory results published in PubChem BioAssay AID488969 (Vanderbilt High Throughput Screening Facility, 2010).
# In all, about 110,000 compounds were measured (“z-score”: median about -0.1, highest 2% from about 2 on). Some of the results follow. The source made the active and inactive calls.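 How the source made its calls: active means z-score in the third read window above 3 or below -3; inactive means the rest.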
# Molecular target: Metabotropic glutamate receptor 8 (Rattus norvegicus) (UniProt P70579)
# Assay: mGluR8 Gi/Go-coupled signaling modulation – cell-based, rat, thallium flux, HTS, primary screen (AID 488969)
# Conditions: HEK293 rat mGluR8, GIRK (G protein-gated inwardly rectifying potassium channel) thallium flux, FluoZin2; at 10 µM; stronger effect = higher value; submaximal glutamate (EC20) added with thallium
# UniProt P70579, sequence (P70579 whole entry, looked up): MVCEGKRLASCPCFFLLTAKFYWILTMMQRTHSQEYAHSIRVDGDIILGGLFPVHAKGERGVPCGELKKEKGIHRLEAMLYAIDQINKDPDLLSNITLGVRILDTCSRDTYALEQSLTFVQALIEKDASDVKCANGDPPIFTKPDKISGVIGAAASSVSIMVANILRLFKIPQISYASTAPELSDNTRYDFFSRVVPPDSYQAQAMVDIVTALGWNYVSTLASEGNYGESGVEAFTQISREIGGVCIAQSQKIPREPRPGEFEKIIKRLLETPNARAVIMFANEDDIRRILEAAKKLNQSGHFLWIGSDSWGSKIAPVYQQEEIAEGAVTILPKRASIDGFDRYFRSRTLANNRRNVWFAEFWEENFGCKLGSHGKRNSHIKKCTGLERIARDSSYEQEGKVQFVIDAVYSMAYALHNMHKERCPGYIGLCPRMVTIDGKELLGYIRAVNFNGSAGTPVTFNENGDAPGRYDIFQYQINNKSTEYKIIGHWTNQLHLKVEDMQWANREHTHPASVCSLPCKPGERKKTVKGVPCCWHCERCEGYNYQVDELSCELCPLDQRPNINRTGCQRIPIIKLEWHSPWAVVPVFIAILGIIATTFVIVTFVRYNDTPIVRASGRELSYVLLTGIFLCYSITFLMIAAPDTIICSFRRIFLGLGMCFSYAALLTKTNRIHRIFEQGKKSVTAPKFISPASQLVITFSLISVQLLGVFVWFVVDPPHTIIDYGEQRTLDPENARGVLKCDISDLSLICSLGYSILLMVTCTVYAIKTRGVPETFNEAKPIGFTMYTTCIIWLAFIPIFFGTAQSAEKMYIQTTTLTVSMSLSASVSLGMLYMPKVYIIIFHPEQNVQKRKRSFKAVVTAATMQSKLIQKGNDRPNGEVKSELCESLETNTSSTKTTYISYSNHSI
row,SMILES,z-score
1,O=C(NC1CCCCC1)C(c1ccc2ncccc2c1)N(Cc1ccco1)C(=O)c1ccc2c(c1)OCCO2 (centres undefined),-0.303
2,O=C(Nc1ccc(F)cc1F)c1ccc(-n2cncn2)nc1,-0.0309
3,Cc1nn(Cc2ccc(Cl)cc2Cl)c(C)c1NC(=O)C1C2CCC(O2)C1C(=O)O (centres undefined),0.0518
4,O=C(/C=C/c1ccccc1)NCCc1ccc2c(c1)OCCO2,0.153
5,Cc1ccc2ncnc(NCCC(=O)O)c2c1,0.617
6,COc1cccc(C(=O)NCc2ccc(N3CCN(C(=O)OC(C)(C)C)CC3)cc2)c1,0.23
7,CCOc1ccc(C(C)C)cc1S(=O)(=O)n1nc(C)cc1C,-0.0606
8,CCCCOc1ccc(CSc2nncn2N)cc1,-0.307
9,CCCCNc1oc(-c2ccc(OC)cc2)nc1S(=O)(=O)c1ccccc1,0.17
10,Cc1ccc(C)c(OCCn2cc(/C=C(\C#N)C(=O)NCc3ccco3)c3ccccc32)c1,-0.227
11,Cc1ccc(-c2cccc(NC(=O)C3C4C=CC(C4)C3C(=O)O)c2)o1 (centres undefined),-0.472
12,C=CCOc1cccc(CNn2cn[nH]c2=S)c1,-0.179
13,COc1ccc(OC)c(NC(=O)CNC(=O)Cn2ccc3ccccc3c2=O)c1,-0.0797
14,CC(C)(C)c1nn(-c2ccccc2)c2[nH]c(=O)c(CNCc3ccco3)cc12,-0.626
15,COc1ccc(/C=N/Nc2cc(C)nc(-n3nc(C)cc3C)n2)c(OC)c1,-0.205
16,CCn1c(CNC(=O)c2cccc(C)c2)nnc1SCC(=O)NC1CCCCC1C (centres undefined),0.161
17,CC(=N\O)/C(CN(C)C)=N/O,-0.301
18,N#Cc1c(N2CCN(C(=O)c3ccco3)CC2)nc(-c2ccccc2)c2c1CCCC2,-0.665
19,CC(C)CCN(CCC(C)C)C/C(O)=C(\C#N)c1nc(-c2ccccc2)cs1,-0.448
20,CCCN(CCC)CCNS(=O)(=O)c1ccc2c(c1)CCN2C(=O)C1CCC1,-0.201
21,CNC(=O)c1ccccc1NC(=O)c1ccc(C)c(S(=O)(=O)N2CCCCC2)c1,-0.727
22,Cc1ccc(C2(CC(=O)O)CCOC(C)(C)C2)cc1 (centres undefined),0.918

row,SMILES,z-score
1,COc1ccc(N2CCN(C(CNC(=O)c3ccco3)c3cccnc3)CC2)cc1 (centres undefined),-0.782
2,Nc1nnnn1/N=C/c1cccc(O)c1,-0.0397
3,CCOc1ccc(N(C(=O)/C=C/C(=O)Nc2cc(C)on2)C(C(=O)NC2CCCC2)c2ccccc2C)cc1 (centres undefined),-2.8
4,CC1(C)CC(=O)C2=C(C1)c1c(ccc3ncccc13)NC2c1cccs1 (centres undefined),-0.648
5,COc1ccc(OC(=O)CN2C(=O)C3C4CCC(C4)C3C2=O)cc1 (centres undefined),-0.21
6,O=C1CCCCCN1C(=O)c1cccc(C(=O)N2CCCCCC2=O)c1,0.313
7,CCN(CC(=O)Nc1ccc(NC(C)=O)cc1)C(=O)C(c1ccccc1)c1ccccc1,-0.166
8,O=S(=O)(c1cccc2nsnc12)N1CCN(C/C=C\c2ccccc2)CC1,-0.124
9,O=S(=O)(c1ccc(Cl)cc1)n1nnc2ccccc21,0.0539
10,C=CCNC(=O)/C(=C\C=C\c1ccccc1)NC(=O)c1ccccc1Cl,1.16
11,CO/N=C(\Cn1ncc(N2CCCC2)c(Cl)c1=O)c1ccc(Cl)cc1,-2.69
12,FC(F)Oc1ccccc1NC(=S)Nc1cccc(Cl)c1Cl,active: 3.76
13,CC1(C)OC2OC(COC(=O)c3ccccc3)C3OC(C)(C)OC3C2O1 (centres undefined),-0.215
14,CC12C(=O)N(NC(=O)c3ccncc3)C(=O)C1C1C=CC2C1 (centres undefined),0.0251
15,O=C(NCCCN1CCCC1=O)NC12CC3CC(CC(C3)C1)C2,-0.0455
16,O=C(CSc1nnnn1-c1ccc2c(c1)OCCO2)Nc1nc2c(s1)CCCC2,-0.372
17,CCOc1ccccc1OCc1nn2c(-c3ccc(C)cc3)nnc2s1,-0.482
18,O=C1N/C(=C\c2ccc(O)cc2)C(=O)c2ccccc21,-0.143
19,CN(CC(=O)Nc1cc([N+](=O)[O-])ccc1Cl)Cc1ccc(Br)cc1,-0.349
20,O=C(CN1CCN(C(c2ccccc2)c2ccccc2)CC1)NC(=O)NCc1ccco1,-1.55
21,CCOc1ccc2nc(/N=C/c3c(C)[nH]n(-c4ccc(C)cc4)c3=O)sc2c1,active: 10.6
22,O=C(Nc1ccc(N2CCCCC2)cc1)c1ccc(F)cc1,1.28

row,SMILES,z-score
1,COc1ccccc1N1CCN(C(=O)C(C)N(c2ccccc2)S(C)(=O)=O)CC1 (centres undefined),-0.277
2,CC(=O)c1cc2c(cc1NC(=O)c1cc3nc(C(C)C)cc(C(F)(F)F)n3n1)OCO2,-0.248
3,CCOC(=O)N1CCN(Cc2cn3ccccc3n2)CC1,-0.351
4,CCCCSc1nnc([C@H](C)NC(=O)OC(C)(C)C)o1,0.0965
5,CCn1c(SCC(=O)N(C(C)C)C(C)C)nnc1-c1cc2ccccc2cc1O,1.16
6,CCOC(=O)c1cnc(SCc2nc(N)nc(Nc3ccccc3)n2)nc1N,-0.356
7,O=C(Nc1ccc2c(c1)OCCO2)c1ccc(CN2CCOCC2)cc1,0.15
8,Cn1c(=O)c2c(nc(SCC(=O)O)n2Cc2cccc(C(F)(F)F)c2)n(C)c1=O,-0.0568
9,CCOC(=O)c1sc(NC(=O)CSc2ccccn2)c(C#N)c1C,-0.182
10,O=C(CCC(=O)c1cccs1)OCC(=O)N1CCN(C(=O)c2ccco2)CC1,-1.48
11,COc1ccc(C(=O)n2nc(-c3ccc(C)cc3)nc2N)cc1OC,0.927
12,CCS(=O)(=O)N1CCN(C(=O)CC(C)C)CC1,0.466
13,COC(=O)Cc1cc(=O)n2[nH]cnc2n1,0.566
14,O=C(NCCN1CCCCCC1)C1CC(=O)N(CCc2ccccc2)C1 (centres undefined),0.636
15,Nc1nc2c3ccccc3nc(Cc3ccccc3)n2n1,-0.0245
16,c1ccc(-c2cc3c(NCC4COc5ccccc5O4)ncnc3s2)cc1 (centres undefined),-0.382
17,Cc1cccc(NC(=S)N2CCCCCC2)c1,-0.151
18,CSc1nsc(SC)c1NC(=O)N1CCCCC1,0.516
19,COc1ccc(C2SCC(=O)N2c2nnc(C34CC5CC(CC(C5)C3)C4)s2)cc1 (centres undefined),-0.937
20,CC(=NCC1CCNCC1)C1=C(O)CC(C)(C)CC1=O,1.22
21,COc1ccc(S(=O)(=O)N/N=C(/C)c2cccc(NC(=O)c3ccccc3Cl)c2)cc1,-0.264
22,Cc1ccc(CCNC(=O)C2CCCN(C(=O)N(C)C)C2)cc1 (centres undefined),-0.337

row,SMILES,z-score
1,COc1ccc(C(C)=O)cc1COC(=O)c1ccc2c(c1)OCO2,-0.198
2,COC(=O)c1c(NC(=O)c2ccco2)sc(C(=O)N2CCCC2)c1C,-0.0976
3,OCCn1c(SCCOc2ccccc2)nc2ccccc21,-0.41
4,CCCCc1ccc(N2C(=O)[C@@H]3C(CC(N)=O)NC4(C(=O)Nc5ccc(F)cc54)[C@@H]3C2=O)cc1 (some centres undefined),-0.0237
5,Cc1ccnc(SCC(=O)Nc2sc3c(c2C#N)CCC(C(C)(C)C)C3)n1 (centres undefined),0.249
6,COCP(=O)(c1ccccc1)c1ccccc1,-0.437
7,O=C1OC(OC(=O)c2ccccc2Br)C(N2CCOCC2)=C1Cl (centres undefined),-0.307
8,COC(=O)c1sc2ccccc2c1NC(=O)c1cccs1,-1.61
9,CS(=O)(=O)N(CC(=O)NCCC1=CCCCC1)C1CCCCC1,0.389
10,COc1cc(-c2nc(-c3ccc(NC(=O)c4ccc5c(c4)OCO5)cc3)no2)cc(OC)c1OC,0.262
11,CCC(=O)Nc1ccc(S(=O)(=O)N2CCN(c3ccc(F)cc3)CC2)cc1,0.0336
12,C=C1c2ccccc2NC(=O)N1c1ccc(C)cc1,0.102
13,O=C(CSc1nnc(-c2cccs2)o1)NCC1CN(Cc2ccccc2)CCO1 (centres undefined),0.284
14,CC(C)(CO)NCC(O)COc1ccc2c(c1)CCC2 (centres undefined),0.00787
15,O=C(Cc1ccc(Br)cc1)NC1CCCCC1,0.571
16,O=C(NCC(=O)N(c1ccccc1)C(C(=O)NC1CCCC1)c1cccnc1)c1ccco1 (centres undefined),-0.135
17,COC(=O)c1cn(CC(=O)N2C(C)CCCC2C)c2ccccc12 (centres undefined),1.68
18,COc1cccc(OC)c1OCCCSc1nc(C)cc(=O)[nH]1,-0.254
19,CSc1ccccc1C(=O)NCc1ccc(S(N)(=O)=O)cc1,-0.0297
20,Cc1[nH]c2ccccc2c1NC(=O)CN1CCN(c2cccc(C(F)(F)F)c2)CC1,0.104
21,Cc1c(N(C)C(=O)C23CC4CC(CC(C4)C2)C3)c(=O)n(-c2ccccc2)n1C,-0.293
22,CCN(CC)S(=O)(=O)c1ccc(NC2c3ncccc3C(=O)N2Cc2ccccc2)cc1 (centres undefined),0.968

row,SMILES,z-score
1,COc1ccc(NS(=O)(=O)c2c(C)cc(C)cc2C)cc1,0.0676
2,CCOC(=O)c1c(CN2CCOCC2)n(-c2ccccc2)c2cc(Br)c(OC)cc12,-0.0513
3,CSc1nc(SCCO)c2sc3nc(-c4ccco4)c4c(c3c2n1)CC(C)(C)OC4,-0.485
4,O=C(NCCC(=O)N1CCN(c2ncccn2)CC1)c1ccccc1Cl,-0.316
5,COc1ccc(S(=O)(=O)N(C)CC(=O)N2CCCCC2)cc1Cl,0.326
6,O=C(c1ccc(C#CC2(O)CCCCC2)cc1)N1CCOCC1,0.153
7,Cc1cc([N+](=O)[O-])cnc1NC(C)c1ccccc1 (centres undefined),-0.349
8,Cc1ccc(-c2nnc3c4ccccc4c(C)nn23)cc1S(=O)(=O)N1CCN(CCO)CC1,-0.182
9,Fc1ccc(C2CC(c3ccccc3)Nc3ncnn32)cc1 (centres undefined),0.0535
10,COC(=O)C1=C(C)N(c2ccc(OC)cc2)C(=O)/C1=C\c1cccs1,-0.311
11,COCCNCC#CCOc1ccc(OC)cc1,0.23
12,CSc1cccc(NS(=O)(=O)c2ccc3c(c2)oc(=O)n3C)c1,-0.281
13,O=C(CN(c1ccc(F)cc1)S(=O)(=O)c1ccc2c(c1)OCCO2)Nc1cccnc1,-0.892
14,Nc1nc(NC(=O)c2cccs2)nn1-c1ccccc1,-0.291
15,CCCn1nc(C(=O)Nc2nc3ccccc3[nH]2)c2ccccc2c1=O,-0.611
16,Cc1ccc(S/C=C\C(=O)c2ccccc2)cc1,-0.193
17,CCCOc1ccc(C(=O)NC(=S)Nc2nc3ccc(C)cc3s2)cc1,0.077
18,CCOC(=O)SC1=N/C(=C\c2ccc(N(C)C)cc2)C(=O)S1,0.292
19,O=C1CC(NCCN2CCOCC2)C(=O)N1Cc1ccc(N2CCCC2=O)cc1 (centres undefined),-0.398
20,Cc1[nH]nc(Nc2ccccc2)c1[N+](=O)[O-],0.301
21,COC(=O)C1=C(C)Nc2c(c(=O)n(C)c(=O)n2C)C1c1ccncc1 (centres undefined),-0.211
